# The campaign covered roughly 410,000 compounds. About 1,200 (0.29%) were called active. This list was built around the results that the source calls inconclusive (neither active nor inactive); the mix of calls is not that of the screen. Calls follow the shape of the dose curve; as a rule, active = well fitted activation curve with a large enough effect; inconclusive = small, poorly fitted or top-dose-only effect; inactive = flat fitted curve, though single readings scatter. Potencies beside an inconclusive call are fits to weak or partial responses and may not hold up.
# Assay: qHTS of Nrf2 Activators; also: nearly all actives have a fitted effect of over 65% in size; as to activation: % of control where 0% means no effect
# Conditions: AREc32 ARE-luciferase reporter (MCF7-derived line), luminescence, 24 h; activation: at 46.1 µM (top of the series)
# Summary of the method: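 AREc32 cells carrying an ARE-driven firefly luciferase reporter were seeded at 1000 cells/well in OPTI-MEM with 5% FBS, then exposed to compound for 24 hr at 37 deg C. Luminescence was read with Steady-Glo after 30 min at RT.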
# Potency is read from the fitted curve at half-maximal effect; tags tell the direction and shape of the fitted curve.
SMILES,Potency,activation
O=C/C(=C\Nc1ccc(Cl)cn1)c1nc2ccccc2o1,"inconclusive: 11.2 µM [activator, partial curve]",–
O=C(NCc1ccco1)c1cccc(-c2cncc3nccn23)c1,"inconclusive: 12.6 µM [activator, single point]",–
COc1cccc(-c2nc(=S)c3c(o2)CCCC3)c1,active: 11.2 µM,–
Cc1ccc(C(=O)Nc2cc([N+](=O)[O-])ccc2F)s1,"inconclusive: 17.8 µM [activator, single point]",–
COC(=O)c1ccc(NC(=O)CSc2nnc(COc3ccc4c(c3)CCCC4)o2)cc1,–,inactive: -0.479%
Cn1nccc1C(=O)Nc1ccc(OC(=O)c2ccnn2C)cc1,–,inactive: -0.457%
Cc1csc2c(=O)sc(NC(=O)c3ccc(F)cc3)nc12,"inconclusive: 20 µM [activator, partial curve, poor fit]",–
Cc1ccc(/C=C/C(=O)Nc2sc(C)c(C)c2C(=O)OC(C)C)o1,"inconclusive: 12.6 µM [activator, partial curve, poor fit]",–
Cc1ccc(C)c(C(=O)Cn2ncc(Cl)c(Cl)c2=O)c1,"inconclusive: 3.55 µM [activator, partial curve, poor fit]",–
COc1cc(O)sc1C=Nc1ccc(Cl)cc1,"inconclusive: 11.2 µM [activator, partial curve]",–
Cc1cccc(Cc2cnc(NC(=O)C3Cc4ccc(C)cc4C(=O)O3)s2)c1 (stereo not drawn),–,inactive: -0.786%
COC(=O)[C@@]1(Cc2ccc(OC)cc2)[C@@H]2[C@@H](CC(=O)[C@H]2CC(=O)C(=O)N(C)C)CN1C(=O)c1ccccc1,"inconclusive: 22.4 µM [activator, single point]",–
O=C(NCCCn1ccnc1)c1ccc(N2CCCCCC2)c([N+](=O)[O-])c1,–,inactive: 2.5%
N#CCCn1cc(C=C(C#N)C#N)c(-c2ccc(Cl)cc2)n1,"inconclusive: 31.6 µM [activator, single point]",–
O=C(NCC1CCCO1)c1cc(-c2ccccc2F)no1 (stereo not drawn),"inconclusive: 17.8 µM [activator, single point]",–
Cc1cc(CN(C)C(=O)CCc2nnc(Cc3cccc(C(F)(F)F)c3)o2)on1,–,inactive: 2.89%
O=C(Nc1nc2ccc(Cl)cc2s1)[C@@H]1CCCN1C(=O)c1cccs1,"inconclusive: 14.1 µM [activator, single point]",–
CCCCNC(=O)NC1(C(F)(F)F)Oc2ccccc2O1,"inconclusive: 22.4 µM [activator, single point]",–
COc1cc(OC)cc(-c2cc3ccc(F)cc3cn2)c1,"inconclusive: 11.2 µM [activator, partial curve, poor fit]",–
Cc1ncc(N=Nc2ccccc2)c(-c2ccccc2)n1,active: 3.98 µM,–
COc1cc2c(cc1OC)C1CCc3cc4c(cc3C1N=C2)OCO4 (stereo not drawn),–,inactive: -0.437%
Oc1cc(-n2cccn2)c(O)cc1-n1cccn1,"inconclusive: 31.6 µM [activator, single point]",–
CC(C)(C)c1cc(C(=O)Nc2cccnc2)cc(C(=O)Nc2cccnc2)c1,–,inactive: 0.061%
Cc1cccc(C(=O)Nc2nnc(SCC(=O)NC3CC3)s2)c1,"inconclusive: 12.6 µM [activator, partial curve]",–
CCOc1cc(/C=C/C(=O)c2ccc(O)cc2)ccc1OCC(=O)N(C)C,"inconclusive: 20 µM [activator, partial curve, poor fit]",–

SMILES,Potency,activation
Cc1c2ccccc2nc2c(F)c(N(C)C)c(F)c(F)c12,–,inactive: 4.94%
CCOC(=O)c1cnc(-c2ccccc2)nc1N(C)C,"inconclusive: 17.8 µM [activator, partial curve, poor fit]",–
COc1ccc(Cl)cc1NC(=O)c1ccc2nc(Cc3ccccc3)oc2c1,"inconclusive: 3.16 µM [activator, single point]",–
CSc1ccc(CN(C)C(=O)c2cc(=O)c3ccccc3o2)cc1,"inconclusive: 12.6 µM [activator, partial curve, poor fit]",–
O=c1cc(CO)oc(C(Nc2cccc([N+](=O)[O-])c2)c2ccccn2)c1O (stereo not drawn),"inconclusive: 22.4 µM [activator, partial curve, poor fit]",–
O=C(CCCCCCCC(=O)N1CCCC1)N1CCCC1,–,inactive: -0.133%
Cc1ccc(NC(=O)c2cccc(NC(=O)/C=C/c3ccco3)c2)cc1C,"inconclusive: 12.6 µM [activator, partial curve]",–
CCOC(=O)/C=C/C(=O)NNC(=O)c1ccccc1Cl,"inconclusive: 14.1 µM [activator, single point]",–
O=[N+]([O-])c1ccccc1SNc1ccccn1,"inconclusive: 31.6 µM [activator, partial curve, poor fit]",–
CCSc1ncc(Cl)c(C(=O)Nc2ccccc2)n1,"inconclusive: 7.08 µM [activator, partial curve, poor fit]",–
Cc1ccc(CN2CCN(/N=C\C(Br)=C\c3ccccc3)CC2)cc1,"inconclusive: 15.8 µM [activator, single point]",–
Cn1c(Oc2ccncc2)nc2cc(-c3ccsc3)sc2c1=O,"inconclusive: 12.6 µM [activator, partial curve, poor fit]",–
Nc1nc(Nc2cccc(Cl)c2)nc(NCc2ccco2)c1[N+](=O)[O-],"inconclusive: 3.16 µM [activator, partial curve, poor fit]",–
O=C(CCN1C(=O)/C(=C/c2cccs2)SC1=S)N1CCCCC1,"inconclusive: 2.82 µM [activator, full curve, poor fit]",–
Nc1ccccc1N=Nc1ccccc1N,"inconclusive: 10 µM [activator, partial curve]",–
Fc1cccc(Nc2nc3ccccc3n3nnnc23)c1,"inconclusive: 3.55 µM [activator, partial curve, poor fit]",–
CCC(=O)N1CCN(c2ccc(NC(=O)c3ccc([N+](=O)[O-])o3)cc2Cl)CC1,"inconclusive: 3.16 µM [activator, partial curve, poor fit]",–
CCc1cccc(NC(=O)COC(=O)c2cc(=O)c3ccccc3o2)c1,active: 14.1 µM,–
COc1cccc(N=Nc2ccc3ccccc3c2O)c1,"inconclusive: 2.82 µM [activator, full curve, poor fit]",–
Cc1ccc(/C=C2\SC(=S)N(CCC(=O)NCCCN3CCOCC3)C2=O)cc1,"inconclusive: 35.5 µM [activator, partial curve, poor fit]",–
O=C(/C=C/c1ccccc1Cl)c1ccc(O)cc1,"inconclusive: 3.55 µM [activator, partial curve, poor fit]",–
Cc1ccccc1/C(N)=N/OC(=O)/C=C/c1ccccc1,"inconclusive: 22.4 µM [activator, single point]",–
CC(C)C(=O)Nc1ccc2c(c1)C(=O)N(CCC(=O)O)C2=O,–,inactive: -0.731%
O=C(Nc1nccs1)C(Br)C(Br)c1ccccc1 (stereo not drawn),"inconclusive: 10 µM [activator, partial curve, poor fit]",–
O=C(CSc1ccsc1[N+](=O)[O-])Nc1cccc(F)c1,"inconclusive: 11.2 µM [activator, single point]",–

SMILES,Potency,activation
COc1ccccc1NC(=O)c1cnc(SCC(=O)NCCc2ccccc2)n(C)c1=O,active: 4.47 µM,–
OC(COc1ccc(Br)cc1)CN1CCN(c2ccccc2)CC1 (stereo not drawn),–,inactive: -0.152%
CC(C)Sc1nc(NCc2ccco2)c2c3c(sc2n1)COC(C)(C)C3,"inconclusive: 20 µM [activator, single point]",–
Clc1ccccc1-c1nn2c(-c3ccncc3)nnc2s1,–,inactive: 0.227%
CC(C)C(=O)N(c1ccc2oc(=O)sc2c1)S(=O)(=O)c1cccs1,–,inactive: 10.2%
O=C(CCCCCCC(=O)Nc1ccccc1)NO,active: 4.47 µM,–
COc1ccc(-n2ccnc(NCc3ccc(Cl)cc3)c2=O)cc1,–,inactive: 4.93%
CNC(=O)c1cc(S(=O)(=O)N2CC(C)OC(C)C2)ccc1N1CCOCC1 (stereo not drawn),–,inactive: -0.358%
c1ccc(-c2nc(-c3ccco3)n3ccccc23)cc1,active: 11.2 µM,–
CCOc1cc(-c2nc3ccccc3s2)ccc1O,"inconclusive: 15.8 µM [activator, partial curve, poor fit]",–
Cc1cc(-c2n[nH]c(=S)n2/N=C/C(Br)=C/c2ccccc2)n[nH]1,"inconclusive: 3.16 µM [activator, partial curve, poor fit]",–
COc1ccc(-n2c(C)c(C(C)=O)c3cc(OC(C)=O)ccc32)cc1,–,inactive: -0.365%
CC1(C(=O)N/N=C/c2ccccc2)CC1(Cl)Cl (stereo not drawn),–,inactive: 0.0353%
COC(=O)c1sccc1NC(=O)c1ccc(C)s1,"inconclusive: 11.2 µM [activator, single point]",–
C/C(=C\C(=O)Nc1nccs1)c1ccccc1,–,inactive: 17.7%
CCc1nc(SCC(=O)c2ccccc2)c2ccccc2n1,"inconclusive: 12.6 µM [activator, partial curve, poor fit]",–
N#Cc1cc(Oc2cccc3cccnc23)c(-n2nnc3ccccc32)cc1C#N,–,inactive: -3.49%
Cc1ccc(N/N=C(\C#N)C(=N)N2CCCCCC2)cc1,–,inactive: 0.287%
O=c1cc(-c2ccccc2)oc2cc(O)cc(O)c12,"inconclusive: 14.1 µM [activator, single point]",–
CCOc1ccc(-n2c(C)cc(C(=O)CCl)c2C)cc1,"inconclusive: 31.6 µM [activator, single point]",–
Cc1nnc(N/N=C/c2cccc(OCc3ccc(Cl)c(Cl)c3)c2)n1N,–,inactive: -2.47%
COc1ccc(/C=C/C(=O)O/N=C(\N)c2ccccn2)cc1OC,–,inactive: 12.1%
CCCN(C(=O)c1cc2c(s1)-c1ccccc1SC2)c1ccccc1F,–,inactive: -1.02%

# Reference: PubChem BioAssay AID624171 (National Center for Advancing Translational Sciences (NCATS), 2012)
